Experimental data reported in the RNAGym collection of RNA variant scans (doi:10.1093/nar/gkz1192).
The source gives no read counts; variants with many changes may rest on few reads.

B1: CPEB3 Ribozyme (parent)
chain: UAACAGGGGGCCACAGCAGAAGCGUUCACGUCGCAGCCCCUGUCAGAUUCUGGUGAAUCUGCGAAUUCUGCUGUAUAUCUC

Variants of: B1
Experiment: self-cleavage, relative activity (ratio to wild type); higher = more cleavage; in vitro, sequencing
Outline: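 After error-prone PCR and barcoding, CPEB3 ribozyme mutant libraries were transcribed with T7 RNA polymerase at 37°C for 5 hours, then given 15 min with DNase I before an EDTA stop, and they cleaved during both steps. Reverse transcription with template switching preceded Illumina sequencing. Relative activity divides a variant's cleaved/total read fraction by the unmutated ribozyme's. At least 5 reads were required per variant, and three batches were averaged.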

Row | Variant | self-cleavage
1 | U31C U41A U48A | 0.15
2 | C32G U43C U54C A57G G63A | 0.08
3 | G33A C37G A57G | 0.11
4 | U31G U41A U72A | 0.12
5 | U31G U49C U66C U78A | 0.1
6 | U31C U48A A57G | 0.21
7 | G33A A35U C39U A47G | 0.14
8 | U31G U72C A77U | 0.66
9 | C32U U69C U72A U76C | 0.06
10 | U31C U51C A56U A64U | 0.15
11 | U31C U66A U78C | 0.31
12 | C32A U58A A77G | 0.39
13 | G33C U43C U69A | 0.13
14 | C32A G52U U58C | 0.18
15 | G33A C34U U51A U78C | 0.05
16 | U31C U43G U49A | 0.18
17 | C34A U43C U54C | 0.34
18 | G33A A35C U49C A56U U78C | 0.1
19 | C34G G42A A56U | 0.25
20 | G33A A35U A56U A57G | 0.12
21 | C32U U41G U49C U67C | 0.09

Row | Variant | self-cleavage
22 | U31C U41G U48C U51C | 0.16
23 | U31C U54C U67C C68U | 0.16
24 | U31C U41A G63A U69A | 0.09
25 | G33A U69C U80C | 0.1
26 | U31C U43C A57G A64G | 0.23
27 | G33A U72C C81A | 0.32
28 | G33A G52A U54G | 0.23
29 | C32U A65G U67A | 0.06
30 | C32A A45G U72C U76C | 0.35
31 | U31C U48C U51C U67C U72A | 0.09
32 | C34G A64G U67G A77U | 0.08
33 | C32U U43C A75U | 0.17
34 | G33C U49A U51A U67C | 0.14
35 | C34A C40A A45G A57U U67A | 0.04
36 | U31C U43G U48C U54C U60C U74C | 0.14
37 | U31C U43C U51C | 0.45
38 | G33A U49G A56G A65G U67A U78A | 0.05
39 | G33U A47G U51A | 0.15
40 | U31C U41A A45U U78C | 0.13
41 | C32U A45G U51A U67C | 0.11
42 | G33A U80C C81U | 0.12

Row | Variant | self-cleavage
43 | U31G U48C A56G U66C | 0.14
44 | U31C U54C U66C U69G U74A | 0.1
45 | U31C U60C U69C U72A U80C | 0.17
46 | C32G G36U U49C A56C | 0.06
47 | C32U G46A U58C | 0.48
48 | C32A A35G G53C U78C | 0.69
49 | C34A A35G U66C U72A | 0.14
50 | C34A U48C U51A U69C U72A | 0.1
51 | C34A U41A A45G | 0.14
52 | U31C U43C U49A U54C | 0.13
53 | U31C U41A A45G | 0.16
54 | C34A C40U U78C | 0.16
55 | G33A U48C U72C | 0.08
56 | C32U A35U U54A A56G | 0.1
57 | G33A A57G U66C U67C U74C U76A | 0.08
58 | U31C U41A U72C U78C | 0.15
59 | U31G C34U U72A A77G | 0.08
60 | G33A A35G U43A U66C U67A U72C | 0.04
61 | G33A U41A A45G U60C C71U | 0.06
62 | G33C U49C G53U A75G | 0.08
63 | G33A G55U G63U U66C | 0.06

Row | Variant | self-cleavage
64 | C34A U43C A45G U49G U80A | 0.14
65 | U31C U58C U66A G73A | 0.18
66 | U31C U43C C50A U66C | 0.06
67 | U31C G52U A64G U67A | 0.17
68 | G33A A47G U49A | 0.11
69 | C32A U51C G52A | 0.12
70 | C32U A35U U43C A56U | 0.17
71 | C32G U48C A56U | 0.12
72 | U31C U51C U72C U80C | 0.99
73 | U31C U41C U72A | 0.43
74 | U31C U67G U76C | 0.5
75 | C32U A35U A45G U58A U78C | 0
76 | U31C U60C G73U | 0.68
77 | U31C U49C U78C | 0.22
78 | C32U U58C A77U | 0.13
79 | G33U U51A A56U A64U | 0.11
80 | U31C G55C A56G A64G | 0.22
81 | G33A A35G U54C U60A | 0.08
82 | U31G C39G U48C | 0.09
83 | G33A U41C U51C A77G | 0.12
